Test results taken from publication PMC6778083 (Nature Communications, 2019).

B1: AdhE F670A mutant, Escherichia coli K12 (enzyme, UniProt P0A9Q7 1-891, looked up)
chain: MAVTNVAELNALVERVKKAQREYASFTQEQVDKIFRAAALAAADARIPLAKMAVAESGMGIVEDKVIKNHFASEYIYNAYKDEKTCGVLSEDDTFGTITIAEPIGIICGIVPTTNPTSTAIFKSLISLKTRNAIIFSPHPRAKDATNKAADIVLQAAIAAGAPKDLIGWIDQPSVELSNALMHHPDINLILATGGPGMVKAAYSSGKPAIGVGAGNTPVVIDETADIKRAVASVLMSKTFDNGVICASEQSVVVVDSVYDAVRERFATHGGYLLQGKELKAVQDVILKNGALNAAIVGQPAYKIAELAGFSVPENTKILIGEVTVVDESEPFAHEKLSPTLAMYRAKDFEDAVEKAEKLVAMGGIGHTSCLYTDQDNQPARVSYFGQKMKTARILINTPASQGGIGDLYNFKLAPSLTLGCGSWGGNSISENVGPKHLINKKTVAKRAENMLWHKLPKSIYFRRGSLPIALDEVITDGHKRALIVTDRFLFNNGYADQITSVLKAAGVETEVFFEVEADPTLSIVRKGAELANSFKPDVIIALGGGSPMDAAKIMWVMYEHPETHFEELALRFMDIRKRIYKFPKMGVKAKMIAVTTTSGTGSEVTPFAVVTDDATGQKYPLADYALTPDMAIVDANLVMDMPKSLCAFGGLDAVTHAMEAYVSVLASEASDGQALQALKLLKEYLPASYHEGSKNPVARERVHSAATIAGIAFANAFLGVCHSMAHKLGSQFHIPHGLANALLICNVIRYNANDNPTKQTAFSQYDRPQARRRYAEIADHLGLSAPGDRTAAKIEKLLAWLETLKAELGIPKSIREAGVQEADFLANVDKLSEDAFDDQCTGANPRYPLISELKQILLDTYYGRDYVEGETAAKKEAAPAKAEKKAKKSA
B2: AdhE F670E mutant, Escherichia coli K12 (enzyme, UniProt P0A9Q7 1-891, looked up)
chain: B1 chain with A670E
B3: AdhE F670V mutant, Escherichia coli K12 (enzyme, UniProt P0A9Q7 1-891, looked up)
chain: B1 chain with A670V

Legend:
AUC = biological target: the molecule itself; experiment: AUC
SEC-SAXS = biological target: the molecule itself; experiment: SEC-SAXS

| Protein | binding result (AUC) | stoichiometry N (SEC-SAXS) |
| --- | --- | --- |
| B1 | binds |  |
| B2 |  | 2 |
| B3 | binds |  |

Positions count from the first letter of the chain named. Names and notes keep the numbering of the source.
